{"source": "PubChem BioAssay AID1508642", "about": "(National Center for Advancing Translational Sciences (NCATS), 2021)", "note": "Among all 43,000 compounds or so, about 200 (0.47%) were called active. Another 12% or so got no clear call; they are omitted. Calls come from the whole dose curve; as a rule, active = well fitted cell-killing curve with a large enough effect; inconclusive = small, poorly fitted or top-dose-only effect, or effect the other way; inactive = flat fitted curve, though single readings scatter. The list shows a part of the results. % is set by controls: 0 for no effect and ±100 for the full control effect."}
{"assay": "Cell viability qHTS assay in S16 Pmp22-F2sN cells; note: nearly all actives have a fitted effect of over 65% in size", "conditions": "S16 Pmp22-F2sN Schwann cells (luciferase reporters placed in the Pmp22 gene) viability, CellTiter-Glo, 24 h; series mostly up to 57.5 µM; activity change, negative = cytotoxicity: at the top concentration", "procedure,_shortened": "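Luminescence from CellTiter-Glo, read by CCD camera after a 15 min room-temperature incubation, served as the viability signal. Reporter Schwann cells (S16 Pmp22-F2sN) had been treated with pin-transferred compounds for 24 h at 37C.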"}
{"smiles": "Cc1ccc2c(c1)c1c(c(=O)n(-c3cccc(Cl)c3)c(=O)n1C)n2C", "activity change, negative = cytotoxicity": "inactive: 6.7%"}
{"smiles": "COc1cc(OC)c(NC(=O)c2cnc(N3CCCC3)nc2C)cc1Cl", "activity change, negative = cytotoxicity": "inactive: 9.01%"}
{"smiles": "CCSc1ncc(Cl)c(C(=O)Nc2sc(C(C)=O)c(C)c2C(=O)OC)n1", "activity change, negative = cytotoxicity": "inactive: -0.152%"}
{"smiles": "CCOC(=O)c1c(NC(=O)c2cc3nc(-c4ccc(OC)cc4)cc(C(F)(F)F)n3n2)sc(C)c1C", "activity change, negative = cytotoxicity": "inactive: -2.99%"}
{"smiles": "CCc1cccc(NC(=O)c2c(C)oc3ncnc(N4CCCCC4)c23)c1", "activity change, negative = cytotoxicity": "inactive: -0.583%"}
{"smiles": "O=C1CN(C(=O)COc2ccc(Cl)cc2Cl)C(c2ccc(F)cc2)c2cc(F)ccc2N1", "note": "(configuration not stated)", "activity change, negative = cytotoxicity": "inactive: -18.2%"}
{"smiles": "COc1ccc(C(=O)c2oc3ccccc3c2NC(=O)c2nc(SC)ncc2Cl)cc1Cl", "activity change, negative = cytotoxicity": "inactive: 1.22%"}
{"smiles": "CC(=O)c1cccc(Nc2c3c(nc4nc(-c5cccs5)nn24)CCCC3)c1", "activity change, negative = cytotoxicity": "inactive: -17.1%"}
{"smiles": "COc1cc(C(c2c(C)[nH][nH]c2=O)c2c(C)[nH][nH]c2=O)ccc1OC(=O)c1ccccc1F", "activity change, negative = cytotoxicity": "inactive: -2.19%"}
{"smiles": "Cc1ccc(CNC(=O)C2CCN(c3nc4ccc(C)cc4[nH]3)CC2)cc1", "activity change, negative = cytotoxicity": "inactive: 4.87%"}
{"smiles": "CC(=O)Nc1ccc(NC(=O)CSc2nnc3c4cc(Br)ccc4n(C)c3n2)cc1", "activity change, negative = cytotoxicity": "inactive: 4.09%"}
{"smiles": "CCCC(=O)Nc1cccc(-c2nc3cc(C)c(C)cc3o2)c1C", "activity change, negative = cytotoxicity": "inactive: 12.6%"}
{"smiles": "COC(=O)c1ccc2oc(=O)c(S(=O)(=O)c3ccc(C)cc3)cc2c1", "activity change, negative = cytotoxicity": "inactive: 0.0607%"}
{"smiles": "O=C(COc1ccc(F)cc1)Nc1cccc(OCc2cc(=O)n3ccccc3n2)c1", "activity change, negative = cytotoxicity": "inactive: -0.946%"}
{"smiles": "Cc1ccc(-n2nc(C)c3c(C)cc(=O)n(CC(=O)NCc4ccc(OC(C)C)cc4)c32)cc1", "activity change, negative = cytotoxicity": "inactive: -5.03%"}
{"smiles": "COc1ccc(Nc2ncc(C(=O)Nc3cc(C)ccc3OC)c3ccccc23)cc1", "activity change, negative = cytotoxicity": "inactive: 17.3%"}
{"smiles": "FC(F)(F)c1ccc(C2=Nc3ccccc3NC(c3cccs3)=N2)cc1", "activity change, negative = cytotoxicity": "inactive: -2.26%"}
{"smiles": "Cc1ccc(NC(=O)c2ccc(=O)n(CC(=O)Nc3cc(C)cc(C)c3)n2)cc1", "activity change, negative = cytotoxicity": "inactive: -0.889%"}
{"smiles": "Fc1ccc(-n2ncc3c(Nc4ccc(Oc5ccccc5)cc4)ncnc32)cc1", "activity change, negative = cytotoxicity": "inactive: 5.67%"}
{"smiles": "Cc1ccc(OCC(=O)Nc2c(Cl)ccc3nsnc23)cc1C", "activity change, negative = cytotoxicity": "inactive: -0.14%"}
{"smiles": "Cc1ccc2c(c1)c1c(c(=O)n(-c3ccccc3C)c(=O)n1Cc1ccccc1F)n2C", "activity change, negative = cytotoxicity": "inactive: 20.1%"}
{"smiles": "COc1ccc(NC(=O)CCc2c(C)nc3c(-c4ccccc4)c(C)nn3c2C)cc1Cl", "activity change, negative = cytotoxicity": "inactive: 5.2%"}
{"smiles": "Cn1c(C(=O)NCc2ccc(Cl)cc2)cc2c(=O)n(C)c3ccccc3c21", "activity change, negative = cytotoxicity": "inactive: -0.954%"}
{"smiles": "Cc1ccc(Cl)cc1NC(=O)Cn1c(=O)oc2cc(S(=O)(=O)N3CCCCCC3)ccc21", "activity change, negative = cytotoxicity": "inactive: 5.34%"}
{"smiles": "CCCc1cc(=O)[nH]c(SCc2nc(-c3ccc(OC)cc3)no2)n1", "activity change, negative = cytotoxicity": "inactive: -0.774%"}
{"smiles": "Cc1cc(C)cc(OCC(=O)NCC2(N3CCOCC3)CCCCC2)c1", "activity change, negative = cytotoxicity": "inactive: -26.6%"}
{"smiles": "O=C(Cn1c(SCCOc2ccccc2Cl)nc2ccccc21)N1CCCCC1", "activity change, negative = cytotoxicity": "inactive: 1.05%"}
{"smiles": "O=C(C1CCN(c2ncnc3c2nc2n3CCCCC2)CC1)N1CCN(c2ccccc2)CC1", "activity change, negative = cytotoxicity": "inactive: -25.7%"}
{"smiles": "CCOC(=O)c1ccccc1NC(=O)c1sc2ncn(CC)c(=O)c2c1C", "activity change, negative = cytotoxicity": "inactive: 1.62%"}
{"smiles": "COc1ccc(CC(=O)NCCc2csc(-c3cccc(F)c3)n2)cc1OC", "activity change, negative = cytotoxicity": "inactive: -0.227%"}
{"smiles": "N#Cc1ccccc1Cn1c(=O)n(-c2ccc(F)c(Cl)c2)c(=O)c2sccc21", "activity change, negative = cytotoxicity": "inactive: 8.6%"}
{"smiles": "Cc1nc(-c2ccc(F)cc2)sc1CCNC(=O)C(=O)Nc1ccc2c(c1)OCO2", "activity change, negative = cytotoxicity": "inactive: 11%"}
{"smiles": "CCOC(=O)c1cccc(NC(=O)NCc2ccc3c(c2)CCN3C(=O)CC)c1", "activity change, negative = cytotoxicity": "inactive: -0.21%"}
{"smiles": "CCCn1c2ccccc2c2cnn(CC(=O)NCCc3cc(OC)ccc3OC)c(=O)c21", "activity change, negative = cytotoxicity": "inactive: 4.15%"}
{"smiles": "Cc1ccc(CSc2ncccc2C(=O)O)cc1", "activity change, negative = cytotoxicity": "inactive: -0.155%"}
{"smiles": "COc1cccc(-c2nc(CS(=O)(=O)CC(=O)NCCCc3ccccc3)c(C)o2)c1", "activity change, negative = cytotoxicity": "inactive: 2.78%"}
{"smiles": "Cc1ccc(S(=O)(=O)N2CCCc3cc(NC(=O)c4ccc(C(C)(C)C)cc4)ccc32)cc1", "activity change, negative = cytotoxicity": "inactive: -7.4%"}
{"smiles": "CCc1ccc(C(=O)c2cn(CC(=O)Nc3ccc(OC)c(Cl)c3)c3nc(C)ccc3c2=O)cc1", "activity change, negative = cytotoxicity": "inactive: -11.7%"}
{"smiles": "CCCN(C(=O)NCc1noc2ccc(C)cc12)c1ccc(Cl)c(Cl)c1", "activity change, negative = cytotoxicity": "inactive: 7.44%"}
{"smiles": "CC1=C(C(=O)Nc2cccc(C(F)(F)F)c2)C(c2ccccn2)n2ncnc2N1", "note": "(configuration not stated)", "activity change, negative = cytotoxicity": "inactive: 13.9%"}
{"smiles": "CCC(=O)Nc1ccccc1-c1nc2ccccc2n(CC(=O)c2ccc(Br)cc2)c1=O", "activity change, negative = cytotoxicity": "inactive: 12.7%"}
{"smiles": "Cc1ccc(Cl)cc1NC(=O)Cn1cc(S(=O)(=O)Cc2ccccc2Cl)c2ccccc21", "activity change, negative = cytotoxicity": "inactive: -10.3%"}
{"smiles": "COc1ccc(N2CCN(C(=O)c3nn(C)c4c3CSc3ccccc3-4)CC2)cc1", "activity change, negative = cytotoxicity": "inactive: 11.5%"}
{"smiles": "Fc1cccc(CSc2nc(NCCc3ccccc3)c3ccccc3n2)c1", "activity change, negative = cytotoxicity": "inactive: -8.29%"}
{"smiles": "COc1ccccc1OCC(=O)Nc1cc(-c2ccc(C)cc2)no1", "activity change, negative = cytotoxicity": "inactive: -0.368%"}
{"smiles": "CC1CCN(S(=O)(=O)c2ccc3nc(N4CCN(c5ccccc5)CC4)ccc3c2)CC1", "activity change, negative = cytotoxicity": "inactive: 13.6%"}
{"smiles": "Oc1c(C(c2ccc(Cl)cc2)N2CCOCC2)sc2nc(-c3ccco3)nn12", "note": "(configuration not stated)", "activity change, negative = cytotoxicity": "inactive: 0.392%"}
{"smiles": "COc1cc(NS(=O)(=O)c2cccs2)cc(OC)c1", "activity change, negative = cytotoxicity": "inactive: -0.536%"}
{"smiles": "CC(=O)c1cc(-c2ccc(F)cc2)n(CC(=O)NCc2ccc(C)cc2)c1C", "activity change, negative = cytotoxicity": "inactive: 1.09%"}
{"smiles": "CCc1ccc(-c2ccc3nnc(SCC(=O)Nc4cccc(C(C)=O)c4)n3n2)cc1", "activity change, negative = cytotoxicity": "inactive: -23%"}
{"smiles": "COc1cc(Cl)c(C)cc1NC(=O)NC1COc2ccccc2C1", "note": "(configuration not stated)", "activity change, negative = cytotoxicity": "inactive: -2.63%"}
{"smiles": "CCCNC(=O)Cn1c(=O)cc(C)c2c(C)nn(-c3cccc(F)c3)c21", "activity change, negative = cytotoxicity": "inactive: 11.5%"}
{"smiles": "Cc1cccc(Oc2nc3c(c(=O)n(C)c(=O)n3C)n2C)c1C", "activity change, negative = cytotoxicity": "inactive: -1.3%"}
{"smiles": "CCOC(=O)N1CCN(C(=O)c2cnn(-c3cccc(F)c3)c2-n2cccc2)CC1", "activity change, negative = cytotoxicity": "inactive: 1.18%"}
{"smiles": "CCc1ccccc1NC(=O)C(CCSC)NS(=O)(=O)c1ccc2c(c1)oc(=O)n2C", "note": "(configuration not stated)", "activity change, negative = cytotoxicity": "inactive: 5.89%"}
{"smiles": "N#Cc1c(-c2ccccc2)cc(-c2ccccc2)nc1SCC(=O)Nc1ccc(Cl)cc1", "activity change, negative = cytotoxicity": "inactive: 8.52%"}
{"smiles": "Cc1ccccc1-c1nn2c(=O)cc(CN3CCN(C(=O)c4ccccc4Br)CC3)nc2s1", "activity change, negative = cytotoxicity": "inactive: -12.7%"}
{"smiles": "COc1ccc(NC(=O)c2oc3ccccc3c2NC(=O)c2cc(OC)c(OC)c(OC)c2)cc1", "activity change, negative = cytotoxicity": "inactive: 7.03%"}
{"smiles": "COc1ccc(CCNC(=O)CN2C(=O)COc3ccccc32)cc1OC", "activity change, negative = cytotoxicity": "inactive: -3.91%"}
{"smiles": "COc1cccc(CNC(=O)c2ccc(CS(=O)c3ccccc3)o2)c1", "note": "(configuration not stated)", "activity change, negative = cytotoxicity": "inactive: 9.71%"}
{"smiles": "CCC(C)n1c(=N)c(S(=O)(=O)c2ccccc2)cc2c(=O)n3ccccc3nc21", "note": "(configuration not stated)", "activity change, negative = cytotoxicity": "inactive: 2.9%"}
{"smiles": "Cc1nn(C)c2c1c(-c1ccccc1)cc(=O)n2CC(=O)NC(C)(C)C", "activity change, negative = cytotoxicity": "inactive: -19.2%"}
